“And” between values parts separate entries of the source, which are not always exact repeats. Equal values may be shown once. The campaign covered roughly 54,000 compounds. About 120 (0.22%) were called active. Inconclusive means that the source gave no clear call. Such entries were picked first, then a sample of the others. Calls come from the whole dose curve; as a rule, active = well fitted inhibition curve with a large enough effect; inconclusive = small, poorly fitted or top-dose-only effect, or effect the other way; inactive = flat fitted curve, though single readings scatter. Potencies of inconclusive entries are doubtful fits and often do not repeat.
target: Fumarate hydratase, mitochondrial (Homo sapiens) (UniProt P07954); experiment: Identification of activators of human fumarate hydratase by quantitative high-throughput screening; conditions: FH coupled MDH/diaphorase resazurin fluorescence, 15 min; activity change, negative = inhibition: at 79.9 µM (top of the series); note: the screen sought activators but most active calls are inhibition curves; nearly all actives have a fitted effect of over 45% in size
% is set by controls: 0 for no effect and ±100 for the full control effect; potency is the fitted concentration of half-maximal effect; tags give direction and shape of the fitted curve.

UniProt P07954, sequence (P07954 whole entry, looked up): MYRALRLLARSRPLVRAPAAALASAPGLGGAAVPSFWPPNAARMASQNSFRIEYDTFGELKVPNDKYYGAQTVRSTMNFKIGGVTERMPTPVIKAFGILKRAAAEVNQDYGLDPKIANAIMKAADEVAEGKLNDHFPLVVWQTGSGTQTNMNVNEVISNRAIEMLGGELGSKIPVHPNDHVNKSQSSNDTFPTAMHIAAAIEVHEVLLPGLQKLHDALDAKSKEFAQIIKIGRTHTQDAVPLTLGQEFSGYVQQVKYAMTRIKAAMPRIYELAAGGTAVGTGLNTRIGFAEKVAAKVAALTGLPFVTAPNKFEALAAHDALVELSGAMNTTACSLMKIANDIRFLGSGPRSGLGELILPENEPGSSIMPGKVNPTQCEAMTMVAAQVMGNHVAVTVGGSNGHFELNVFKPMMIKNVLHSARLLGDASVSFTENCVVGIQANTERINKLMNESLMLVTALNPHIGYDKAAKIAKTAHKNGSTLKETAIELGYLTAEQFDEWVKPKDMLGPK

SMILES	Potency	activity change, negative = inhibition
COc1cc(NC(=O)c2cc(S(=O)(=O)N3CCc4ccccc43)cn2C)cc(OC)c1OC	inconclusive: 31.6 µM [inhibitor, single point]	–
CCc1ccccc1N(C)C(=O)c1cc2c(=O)oc3ccccc3c2s1	inconclusive: 25.1 µM [inhibitor, single point]	–
Cc1cc(I)ccc1Nc1c(C(=O)NOCC2CC2)cc(F)c(F)c1F	inconclusive: 39.8 µM [inhibitor, single point]	–
Cc1ccc(N2C(=O)CSC23C(=O)N(CC(=O)Nc2ccc(C(C)C)cc2)c2ccccc23)cc1C (configuration not stated)	inconclusive: 22.4 µM [inhibitor, partial curve, poor fit]	–
CCOc1ccc(CCNC(=O)c2cc3c(-c4ccc(OC)c(OC)c4)nn(C)c3s2)cc1OCC	inconclusive: 28.2 µM [inhibitor, partial curve]	–
COc1cccc(NC(=O)C(Cc2ccccc2)NS(=O)(=O)c2ccc3c(c2)oc(=O)n3C)c1 (configuration not stated)	inconclusive: 28.2 µM [inhibitor, partial curve]	–
CCc1ccc(OCC2c3cc(OC)c(OC)cc3CCN2C(=O)COc2ccccc2)cc1 (configuration not stated)	inconclusive: 35.5 µM [inhibitor, partial curve, poor fit]	–
CCc1nc2ccccc2n1CCCCOc1ccc(C)cc1	–	inactive: -30.3%
CC(=O)c1ccc(NC(=O)Cn2cc(S(=O)(=O)Cc3cccc(Cl)c3)c3ccccc32)cc1	–	inactive: -8.45%
CCOc1cc(CNC(=O)c2sc3ncnc(N(C)C4CCCCC4)c3c2C)ccc1OC	inconclusive: 28.2 µM [inhibitor, single point]	–
Cc1ccc2c(Sc3ccc(Cl)cc3)c(C(=O)N3CCC(C)CC3)[nH]c2c1	inconclusive: 25.1 µM [inhibitor, partial curve, poor fit]	–
COc1ccc(S(=O)(=O)Nc2ccc3c(c2)N(C(C)=O)CCC3)cc1F	inconclusive: 35.5 µM [inhibitor, single point]	–
CCc1ccccc1NC(=O)c1c(NC(=O)c2ccccc2)sc2c1CCCC2	–	inactive: 2.05%
CC1=C2C(=O)C=C(CO)C2C2OC(=O)C(CS(=O)(=O)O)C2C(OC(=O)Cc2ccc(O)cc2)C1 (configuration not stated)	–	inactive: -9.07% [at 53.3 µM]
C=CC(=O)Nc1cc(-n2c(=O)ccc3cnc4ccc(-c5ccc(NS(C)(=O)=O)cc5)cc4c32)ccc1C	inconclusive: 12.6 µM [inhibitor, partial curve]	–
COc1ccc(NC(=O)Cn2c(SCc3cc(C)ccc3C)nc3ccncc32)c(OC)c1OC	inconclusive: 63.1 µM [inhibitor, single point]	–
COc1ccc2c(CNCc3cccs3)c(C(=O)O)n(Cc3ccccc3)c2c1	–	inactive: -18.3%
Cc1ccc(C)c(N2CCN(CCCNC(=O)c3cnn(-c4ccccc4Cl)c3C3CCN(C(=O)OC(C)(C)C)CC3)CC2)c1	inconclusive: 31.6 µM [inhibitor, partial curve]	–
Cc1cccn2c(=O)c(/C=C(\C#N)c3nc4ccccc4[nH]3)c(Oc3ccc(C(C)(C)C)cc3)nc12	inconclusive: 0.199 µM [inhibitor, partial curve, poor fit]	–

SMILES	Potency	activity change, negative = inhibition
Cc1ccc(C)c(N2CCN(C(c3ccccc3)c3nnc(-c4ccccc4F)o3)CC2)c1 (configuration not stated)	inconclusive: 35.5 µM [inhibitor, partial curve]	–
CC(=O)O[C@@H]1C[C@@]23C[C@@]24CC[C@H](OC2OC[C@@H](O)[C@H](O)[C@H]2O)C(C)(C)[C@@H]4CC[C@H]3[C@]2(C)CC3OC4(C[C@@H](C)C3[C@@]12C)OCC1(C)OC14 (some centres not stated)	–	inactive: 5.19% [at 20.6 µM]
Nc1nnc2c(n1)[nH]c1ccccc12	–	inactive: -16.2%
CC1CCc2nc3ncn(Cc4ccccc4C#N)c(=O)c3cc2C1 (configuration not stated)	inconclusive: 31.6 µM [inhibitor, partial curve, poor fit]	–
CCOc1ccccc1N1CC(c2nc3ccccc3n2CCOc2ccccc2)CC1=O (configuration not stated)	inconclusive: 20 µM [inhibitor, partial curve]	–
Cc1cc(C)c2c(CC(=O)N3CCN(c4cccc(Cl)c4)CC3)coc2c1	inconclusive: 35.5 µM [inhibitor, partial curve, poor fit]	–
Cc1ccc(S(=O)(=O)Nc2ccc3c(c2)CCCN3C(=O)c2cccs2)cc1	inconclusive: 7.94 µM [inhibitor, partial curve, poor fit]	–
CC(C)[C@@](C)(O)[C@@H]1CN(c2nc(-c3[nH]nc4ncccc34)c(F)cc2Cl)CCN1	–	inactive: 0.0481%
O=C(Cn1cc(SCc2c(F)cccc2Cl)c2ccccc21)N1CCCCCC1	inconclusive: 39.8 µM [inhibitor, partial curve]	–
COCCNCc1ccc(-c2cc3nccc(Oc4ccc(NC(=O)C5(C(=O)Nc6ccc(F)cc6)CC5)cc4F)c3s2)nc1	inconclusive: 3.98 µM [inhibitor, partial curve]	–
CCC(=O)N1CCc2cc(Br)cc(S(=O)(=O)Nc3ccc(C)cc3C)c21	inconclusive: 28.2 µM [inhibitor, partial curve]	–
Cc1ccc(CNC(=O)c2ccc(CSCc3ccccc3C)o2)cc1	inconclusive: 35.5 µM [inhibitor, partial curve, poor fit]	–
COc1ccc(-c2nc3ccc(NS(=O)(=O)c4ccc(Cl)cc4)cc3o2)cc1	inconclusive: 35.5 µM [inhibitor, single point]	–
CCN(CC)CCNC(=O)c1c(C)[nH]c(/C=C2\C(=O)Nc3ccc(F)cc32)c1C	inconclusive: 43.7 µM [activator, single point] and active: 12.6 µM	–
CCOC(=O)c1ccc(NC2SC(=O)N(Cc3cccc(C(=O)O)c3)C2=O)cc1 (configuration not stated)	inconclusive: 50.1 µM [activator, single point]	–
COc1ccc2nc(N(Cc3cccnc3)C(=O)C3CCCCC3)sc2c1	–	inconclusive: -35.5% [inhibitor]
Cn1cc(S(=O)(=O)N2CCOCC2)cc1C(=O)Nc1ccc(Cl)c(C(F)(F)F)c1	inconclusive: 28.2 µM [inhibitor, partial curve, poor fit]	–
Cn1c(=O)[nH]c(=O)c2c1nc(NCCc1ccccc1)n2Cc1ccc(F)cc1	–	inactive: -6.91%
